# The list shows a part of the results. Single values are uncertain, as repeats are few or missing.
# Legend:
# Assay in all cases: cell count relative to DMSO control; melanoma cells; higher = more viable cells
# Details in all cases: library dose: standard library concentration; 72 h
# G361 = system: G361
# IPC-298 = system: IPC-298
# IST-MEL1 = system: IST-MEL1
# LB2518-MEL = system: LB2518-MEL
# LOXIMVI = system: LOXIMVI
# MEL-HO = system: MEL-HO
# MZ2-MEL = system: MZ2-MEL
# MeWo = system: MeWo
# RPMI7951 = system: RPMI7951
# RVH-421 = system: RVH-421
# 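Further: cells treated in 1,536-well plates, then fixed and DAPI-stained, with nuclei counted from automated high-throughput microscope images.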
SMILES,cell count (G361) [%],cell count (IPC-298) [%],cell count (IST-MEL1) [%],cell count (LB2518-MEL) [%],cell count (LOXIMVI) [%],cell count (MEL-HO) [%],cell count (MZ2-MEL) [%],cell count (MeWo) [%],cell count (RPMI7951) [%],cell count (RVH-421) [%]
"Cc1nc(Nc2ncc(C(=O)Nc3c(C)cccc3Cl)s2)cc(N2CCN(CCO)CC2)n1 [dasatanib] + COc1cc2ncnc(Nc3ccc(Oc4ccccc4)cc3)c2cc1OC [SrcI1] (first compound 0.02 µM, partner dose 10 µM)",38,60.1,56.4,129,27,66.9,42,61.4,15.7,107
"NC(=O)Nc1cc(-c2cccc(F)c2)sc1C(=O)N[C@H]1CCCNC1 + N#Cc1c(O)c2c(-c3ccc(-c4ccccc4O)cc3)csc2[nH]c1=O [A769662] (first compound 0.1 µM, partner dose 10 µM)",88.9,89.2,98.7,–,103,81,–,73.3,46.3,116
"C=CCn1c(=O)c2cnc(Nc3ccc(N4CCN(C)CC4)cc3)nc2n1-c1cccc(C(C)(C)O)n1 + Cc1cc([N+](=O)[O-])ccc1NS(=O)(=O)c1cc(Cl)ccc1Cl [FH535] (first compound 0.1 µM, partner dose 5 µM)",48.3,53.7,61.2,–,79.2,53.5,–,58.2,86,68.2
"Cc1nc(Nc2ncc(C(=O)Nc3c(C)cccc3Cl)s2)cc(N2CCN(CCO)CC2)n1 [dasatanib] + O=S(=O)(c1ccccc1)N(CC(F)(F)F)c1ccc(C(O)(C(F)(F)F)C(F)(F)F)cc1 [T0901317] (first compound 0.02 µM, partner dose 7 µM)",49.3,64.1,49,88.5,15.6,68.9,39.8,71.3,35.9,54.6
"Cc1nc(Nc2ncc(C(=O)Nc3c(C)cccc3Cl)s2)cc(N2CCN(CCO)CC2)n1 [dasatanib] + NC(=O)Nc1cc(-c2cccc(F)c2)sc1C(=O)N[C@H]1CCCNC1 [AZD7762] (first compound 0.02 µM, partner dose 0.1 µM)",76.4,76.6,58.8,–,10.4,64.2,–,51.3,19,69.2
"Cc1nc(Nc2ncc(C(=O)Nc3c(C)cccc3Cl)s2)cc(N2CCN(CCO)CC2)n1 [dasatanib] + C[C@]1(c2nc3c(C(N)=O)cccc3[nH]2)CCCN1 [Veliparib] (first compound 0.02 µM, partner dose 7 µM)",63.2,103,88.7,–,9.09,74.9,–,92,48.2,56.8
"C[C@]1(c2nc3c(C(N)=O)cccc3[nH]2)CCCN1 [Veliparib] + CCN(CC)CCCCNc1ncc2cc(-c3cc(OC)cc(OC)c3)c(NC(=O)NC(C)(C)C)nc2n1 [PD173074] (first compound 7 µM, partner dose 0.5 µM)",85,88.2,120,85.7,94.3,101,103,86.2,147,91.9
"NCC(=O)Nc1ccc(-n2nc(C(F)(F)F)cc2-c2ccc3c(ccc4ccccc43)c2)cc1 + COc1ccc2c(c1)CCC1C2CCC2(C)C(NCCCCCCN3C(=O)C=CC3=O)CCC12 [U73122] (first compound 5 µM, partner dose 2 µM)",81.3,51.7,75.9,84.6,86.2,84.4,71.8,86.7,64.5,61.3
"CO[C@@H]1[C@H](N(C)C(=O)c2ccccc2)C[C@H]2O[C@]1(C)n1c3ccccc3c3c4c(c5c6ccccc6n2c5c31)C(=O)NC4 [Midostaurin] + CN(NC(=O)CC(=O)NN(C)C(=S)c1ccccc1)C(=S)c1ccccc1 [STA4783] (first compound 0.4 µM, partner dose 0.03 µM)",30.5,65.8,14.7,–,52,66.4,–,15.2,51,83.2
"OCCn1cc(-c2cnc3nnn(Cc4ccc5ncccc5c4)c3n2)cn1 + Cc1cc([N+](=O)[O-])ccc1NS(=O)(=O)c1cc(Cl)ccc1Cl [FH535] (first compound 5 µM, partner dose 5 µM)",59.1,56.1,49.3,140,72,59.7,84.2,76.4,74.1,78.9
"Cc1nc(Nc2ncc(C(=O)Nc3c(C)cccc3Cl)s2)cc(N2CCN(CCO)CC2)n1 [dasatanib] + CO[C@@H]1[C@H](N(C)C(=O)c2ccccc2)C[C@H]2O[C@]1(C)n1c3ccccc3c3c4c(c5c6ccccc6n2c5c31)C(=O)NC4 [Midostaurin] (first compound 0.02 µM, partner dose 0.4 µM)",51,52.4,46.1,40.6,4.69,60.6,29.5,67,22.8,54.4
"C[C@]1(c2nc3c(C(N)=O)cccc3[nH]2)CCCN1 [Veliparib] + Cc1cc(N2CCOCC2)cc2[nH]c(-c3c(NC[C@@H](O)c4cccc(Cl)c4)cc[nH]c3=O)nc12 [BMS536924] (first compound 7 µM, partner dose 1 µM)",75.6,96.5,87.3,–,73.6,96.7,–,73.9,79.3,86.3
"C=CCn1c(=O)c2cnc(Nc3ccc(N4CCN(C)CC4)cc3)nc2n1-c1cccc(C(C)(C)O)n1 + CN(NC(=O)CC(=O)NN(C)C(=S)c1ccccc1)C(=S)c1ccccc1 [STA4783] (first compound 0.1 µM, partner dose 0.03 µM)",37.2,57.8,23,–,65.1,74.3,–,22,59.2,63.7
"CO[C@@H]1[C@H](N(C)C(=O)c2ccccc2)C[C@H]2O[C@]1(C)n1c3ccccc3c3c4c(c5c6ccccc6n2c5c31)C(=O)NC4 [Midostaurin] + c1cc(-c2cnn3cc(-c4ccc(OCCN5CCCCC5)cc4)cnc23)ccn1 [Dorsomorphin] (first compound 0.4 µM, partner dose 2 µM)",44.1,69.1,67.8,–,81.1,74.4,–,56.5,34.9,66.3
"NC(=O)Nc1cc(-c2cccc(F)c2)sc1C(=O)N[C@H]1CCCNC1 + O=C(Nc1cccc(Cl)c1)Nc1ncc(CCNc2ncnc3ccsc23)s1 [SNS314] (first compound 0.1 µM, partner dose 0.004 µM)",69.2,99.4,65.7,–,68.4,80.3,–,62.3,30.9,101
"CO[C@@H]1[C@H](N(C)C(=O)c2ccccc2)C[C@H]2O[C@]1(C)n1c3ccccc3c3c4c(c5c6ccccc6n2c5c31)C(=O)NC4 [Midostaurin] + COc1cc2ncnc(Nc3ccc(Oc4ccccc4)cc3)c2cc1OC [SrcI1] (first compound 0.4 µM, partner dose 10 µM)",42.1,46.5,73.9,64.9,55.1,66.5,31.2,55.7,22.6,69.7
"Cc1nc(Nc2ncc(C(=O)Nc3c(C)cccc3Cl)s2)cc(N2CCN(CCO)CC2)n1 [dasatanib] + COC(=O)c1sccc1S(=O)(=O)Nc1ccc(Nc2ccccc2)cc1OC [GSK0660] (first compound 0.02 µM, partner dose 5 µM)",74.9,90.4,67.5,97.5,33.2,78.5,39.6,113,37.2,52
"OCCn1cc(-c2cnc3nnn(Cc4ccc5ncccc5c4)c3n2)cn1 + O=C1NC(=O)/C(=C/c2ccc(-c3ccc(F)cc3O)o2)S1 [AS252424] (first compound 5 µM, partner dose 5 µM)",93.6,82.7,99,91.2,89.2,87.6,84.4,92.3,77.3,136

# From the supplement of paper PMC4604168 (melanoma cell lines)
